Our source for the cytotoxicity call values is the antibiotic and cytotoxicity screens of Wong et al. (2023).

Some of the results follow.

For the first assay, the system named is HSkMC (human skeletal muscle cells). Put plainly: cytotoxicity call (relative viability < 0.9). The conditions noted are these: 10 µM.
`C[C@H]1CN([C@@H](C)CO)C(=O)CCCn2nncc2CO[C@@H]1CN(C)S(=O)(=O)c1cccc(C#N)c1`: the cytotoxicity call is “inactive”.
On the same count and under the same terms, then `COc1ccc2c3c([nH]c2c1)[C@H](CO)N(C[C@]13CCN(CC1)C(=O)CN(C)C)S(=O)(=O)C`, with “inactive”; and `C[C@@H]1CN([C@@H](C)CO)C(=O)Cc2cc(NS(C)(=O)=O)ccc2O[C@H]1CN(C)Cc1ccc2c(c1)OCO2`, with “inactive”.
In the case of `COc1ccc(S(=O)(=O)N(C)C[C@@H]2OCCCC[C@@H](C)Oc3ccc(NC(=O)Nc4ccc(C(F)(F)F)cc4)cc3C(=O)N([C@@H](C)CO)C[C@@H]2C)cc1`, the cytotoxicity call is “inactive”.
As for `C[C@@H]1CN([C@@H](C)CO)C(=O)c2cccc(NS(=O)(=O)c3ccc(F)cc3)c2O[C@H]1CN(C)C(=O)Nc1cccc2ccccc12`, the cytotoxicity call is “active”.
Turning to `Cc1ccc(S(=O)(=O)Nc2ccc3c(c2)C(=O)N([C@@H](C)CO)C[C@H](C)[C@@H](CN(C)Cc2ccncc2)OCCCC[C@@H](C)O3)cc1`, the cytotoxicity call is “inactive”.
In the case of `COC(=O)[C@H](Cc1ccccc1)N1CC(/C=C/C2CC2)=C[C@@H]1[C@@H](O)CCn1cc(-c2ccc(C(=O)NO)s2)nn1`, the cytotoxicity call was “inactive”.
Same read-out and setting: then `Clc1ccccc1Nc1ccc(-c2ccncc2)s1`, with “inactive”.
For `CN(C)C(=O)C[C@H]1C=C[C@H](NC(=O)C2CC2)[C@@H](CO)O1`, the cytotoxicity call was “inactive”.
As for `Cc1noc(C)c1NC(=O)N(C)C[C@@H]1OCCCC[C@H](C)Oc2ccc(NC(=O)Nc3ccc(C(F)(F)F)cc3)cc2C(=O)N([C@@H](C)CO)C[C@@H]1C`, the cytotoxicity call is “inactive”.

For the next assay, the system named is HepG2. Nature of the assay: cytotoxicity call (relative viability < 0.9). The conditions noted are these: 10 µM.
As for `C[C@@H]1CCCCO[C@@H](CN(C)Cc2ccc(C(=O)O)cc2)[C@@H](C)CN([C@@H](C)CO)C(=O)c2cc(NS(=O)(=O)c3ccc(Cl)cc3)ccc2O1`, the cytotoxicity call was “inactive”.
Consider `C[C@H](CO)N1C[C@H](C)[C@H](CN(C)S(=O)(=O)c2ccc(Cl)cc2)Oc2ccc(NS(C)(=O)=O)cc2CC1=O`, for which the cytotoxicity call was “inactive”.
Turning to `C[C@@H]1CN([C@@H](C)CO)C(=O)c2cccc(NC(=O)c3nc4ccccc4s3)c2O[C@H]1CN(C)Cc1ccc(C(=O)Nc2ccccc2N)cc1`, the cytotoxicity call was “inactive”.
Take `Cc1noc(C)c1NC(=O)N(C)C[C@@H]1OCCCC[C@H](C)Oc2ccc(NC(=O)Nc3cccc4ccccc34)cc2C(=O)N([C@H](C)CO)C[C@@H]1C`: the cytotoxicity call is “inactive”.
Consider `C[C@@H]1CN([C@@H](C)CO)C(=O)c2cccc(NS(=O)(=O)c3cccs3)c2O[C@H]1CN(C)Cc1ccc(-c2ccccc2)cc1`, for which the cytotoxicity call is “inactive”.
For `C[C@@H](N)C1CCC(C(=O)Nc2ccncc2)CC1` (stereo not given in full), the cytotoxicity call was “inactive”.
For `Cc1nc2c(c(N3CCOCC3)n1)OCC(=O)N2`, the cytotoxicity call is “inactive”.
As to `Cc1ccc(C(=O)CCNc2ccc3c(c2)oc2ccccc23)o1`, the cytotoxicity call was “inactive”.
Turning to `COc1ccc(NC(=O)Nc2ccc3c(c2)C(=O)N([C@H](C)CO)C[C@H](C)[C@@H](CN(C)C(=O)CCC(F)(F)F)OCCCC[C@H](C)O3)cc1`, the cytotoxicity call was “inactive”.
On the same count and under the same terms, in the case of `C[C@@H]1CCCCO[C@@H](CN(C)C(=O)C2CCCCC2)[C@H](C)CN([C@H](C)CO)C(=O)c2cc(NC(=O)c3ccccc3)ccc2O1` it was “inactive”; in that of `Cc1noc(C)c1NC(=O)N(C)C[C@H]1Oc2c(NC(=O)c3cnccn3)cccc2C(=O)N([C@@H](C)CO)C[C@@H]1C`, “inactive”.
As to `C[C@@H]1CN([C@@H](C)CO)C(=O)c2cc(NC(=O)c3ccncc3)ccc2O[C@@H](C)CCCCO[C@H]1CN(C)S(C)(=O)=O`, the cytotoxicity call was “inactive”.
On to `C[C@H]1CCCCO[C@H](CN(C)C(=O)c2ccccc2)[C@@H](C)CN([C@@H](C)CO)C(=O)c2cc(NC(=O)Cc3ccccc3)ccc2O1`, for which the cytotoxicity call is “inactive”.
Still for that read-out and setting: then `CCOC(=O)CCCCCCCCCCCC[C@@H]1C=CCC1`, with “inactive”; and `COc1ccc(CN(C)C[C@H]2Oc3ccc(NC(=O)Cn4cnnn4)cc3C(=O)N([C@H](C)CO)C[C@@H]2C)cc1`, with “inactive”; and `C[C@@H]1CCCCO[C@H](CN(C)C(=O)c2ccncc2)[C@H](C)CN([C@H](C)CO)C(=O)c2cc(NS(=O)(=O)c3ccc(Cl)cc3)ccc2O1`, with “inactive”.
Turning to `C[C@@H]1CN([C@H](C)CO)C(=O)Cc2cc(NS(C)(=O)=O)ccc2O[C@@H]1CN(C)Cc1ccc(C(=O)Nc2ccccc2N)cc1`, the cytotoxicity call was “inactive”.
Take `COCC#Cc1ccc2c(c1)O[C@@H](CN(C)C(=O)Nc1ccc(OC)cc1)[C@@H](C)CN([C@H](C)CO)S2(=O)=O`: the cytotoxicity call is “inactive”.
For the molecule `C[C@@H]1CCCCO[C@H](CN(C)C(=O)Nc2ccc3c(c2)OCO3)[C@@H](C)CN([C@H](C)CO)C(=O)c2cc(NC(=O)Cc3ccccc3)ccc2O1`, the cytotoxicity call was “inactive”.
On to `C[C@@H]1CCCCO[C@H](CN(C)Cc2ccc(C(=O)O)cc2)[C@H](C)CN([C@H](C)CO)C(=O)c2cc(NC(=O)Nc3ccccc3)ccc2O1`, for which the cytotoxicity call is “inactive”.
`C[C@@H]1CN([C@H](C)CO)C(=O)c2cc(NS(=O)(=O)c3ccc(F)cc3)ccc2O[C@H]1CN(C)S(=O)(=O)c1cccs1`: the cytotoxicity call is “inactive”.
Consider `CC[C@@H]1CN(C(=O)OC)N1`, for which the cytotoxicity call was “inactive”.
The same measure, in the same setting: then `COc1ccccc1C#Cc1ccc2c(c1)O[C@H](CN(C)Cc1ccncc1)[C@H](C)CN([C@H](C)CO)S2(=O)=O`, with “active”; and `C[C@@H]1CCCCO[C@H](CN(C)C(=O)NC2CCCCC2)[C@H](C)CN([C@@H](C)CO)C(=O)c2cc(NC(=O)Nc3ccc4c(c3)OCO4)ccc2O1`, with “inactive”.
Turning to `C[C@H]1CN([C@@H](C)CO)C(=O)CCCn2nncc2CO[C@@H]1CN(C)S(=O)(=O)c1ccc2c(c1)OCCCO2`, the cytotoxicity call is “inactive”.
As to `C[C@@H]1CN([C@@H](C)CO)C(=O)c2cc(NC(=O)Nc3ccc(C(F)(F)F)cc3)ccc2O[C@@H](C)CCCCO[C@@H]1CN(C)CC1CCCCC1`, the cytotoxicity call is “active”.
`O=C1CN(N=Cc2ccc([N+](=O)[O-])o2)C(=O)N1`: the cytotoxicity call was “active”.
As to `C[C@H](CO)N1C[C@H](C)[C@H](CN(C)S(C)(=O)=O)Oc2c(cccc2N(C)C)C1=O`, the cytotoxicity call is “inactive”.
As for `CS(=O)(=O)O.CSc1ccc2c(c1)C(N1CCN(C)CC1)Cc1ccccc1S2` (stereo not given), the cytotoxicity call is “active”.
Same read-out and setting: then `Cc1noc(C)c1S(=O)(=O)N(C)C[C@@H]1Oc2ccc(NC(=O)NC3CCCCC3)cc2CC(=O)N([C@H](C)CO)C[C@H]1C`, with “inactive”; and `C[C@H]1CN([C@@H](C)CO)C(=O)CCCn2nncc2CO[C@@H]1CN(C)S(=O)(=O)c1cccc(C#N)c1`, with “inactive”.
For the molecule `COc1ccc2c3c([nH]c2c1)[C@H](CO)N(C[C@]13CCN(CC1)C(=O)CN(C)C)S(=O)(=O)C`, the cytotoxicity call was “inactive”.
Consider `C[C@@H]1CN([C@@H](C)CO)C(=O)Cc2cc(NS(C)(=O)=O)ccc2O[C@H]1CN(C)Cc1ccc2c(c1)OCO2`, for which the cytotoxicity call was “inactive”.
On the same count and under the same terms, in the case of `COc1ccc(S(=O)(=O)N(C)C[C@@H]2OCCCC[C@@H](C)Oc3ccc(NC(=O)Nc4ccc(C(F)(F)F)cc4)cc3C(=O)N([C@@H](C)CO)C[C@@H]2C)cc1` it was “inactive”; in that of `C[C@@H]1CN([C@@H](C)CO)C(=O)c2cccc(NS(=O)(=O)c3ccc(F)cc3)c2O[C@H]1CN(C)C(=O)Nc1cccc2ccccc12`, “inactive”; in that of `Cc1ccc(S(=O)(=O)Nc2ccc3c(c2)C(=O)N([C@@H](C)CO)C[C@H](C)[C@@H](CN(C)Cc2ccncc2)OCCCC[C@@H](C)O3)cc1`, “inactive”.
Take `COC(=O)[C@H](Cc1ccccc1)N1CC(/C=C/C2CC2)=C[C@@H]1[C@@H](O)CCn1cc(-c2ccc(C(=O)NO)s2)nn1`: the cytotoxicity call was “inactive”.
Regarding `Clc1ccccc1Nc1ccc(-c2ccncc2)s1`, the cytotoxicity call was “inactive”.
Turning to `CN(C)C(=O)C[C@H]1C=C[C@H](NC(=O)C2CC2)[C@@H](CO)O1`, the cytotoxicity call was “inactive”.
For the molecule `Cc1noc(C)c1NC(=O)N(C)C[C@@H]1OCCCC[C@H](C)Oc2ccc(NC(=O)Nc3ccc(C(F)(F)F)cc3)cc2C(=O)N([C@@H](C)CO)C[C@@H]1C`, the cytotoxicity call was “active”.
